{
  "source": "PubChem BioAssay AID540267",
  "about": "(National Center for Advancing Translational Sciences (NCATS), 2011)",
  "note": "Among all 340,000 compounds or so, about 530 (0.16%) were called active. Inconclusive means that the source gave no clear call. Such entries were picked first, then a sample of the others. Cut-off read from the data, not from the text of the source: active = activity change below about -80%; inconclusive = between about -30% and that limit; inactive = weaker than that. % is set by controls: 0 for no effect and ±100 for the full control effect.",
  "data": [
    {"assay": "Small Molecules that selectively kill Giardia lamblia: qHTS;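 note: parasites exposed to compound for two days anaerobically before the ATP read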", "details": "Giardia lamblia trophozoite viability; at 7.66 µM; hits give low values", "outline": "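Trophozoite viability was measured as ATP-dependent luminescence, read 15-30 min after reagent addition. Before that, parasites at 100 cells/well were exposed to compounds for 48 h, anaerobically, at 37 deg C.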", "values": [
      {"compound": "Cn1cnc(S(=O)(=O)NCc2ccc(Br)cc2)c1", "activity change": "inconclusive: -32.7% [inhibitor]"},
      {"compound": "C#CCOCCOCCOCCNc1nc(N2CCN(C(=O)[C@H](CCCCN)n3cc(CN)nn3)CC2)nc(N2CCN(C(=O)[C@H](CCCCN)n3cc([C@@H](N)[C@H](C)CC)nn3)CC2)n1", "activity change": "inconclusive: -37% [inhibitor]"},
      {"compound": "O=C(CSc1nnc(NC(=O)c2ccc(F)cc2)s1)NCc1ccco1", "activity change": "inconclusive: -43% [inhibitor]"},
      {"compound": "Oc1ccccc1CN1CCC(C(O)(c2ccccc2)c2ccccc2)CC1", "activity change": "inconclusive: -35.3% [inhibitor]"},
      {"compound": "CSCCC1(C(=O)O)NC(c2ccccc2O)C2C(=O)N(C(C)C)C(=O)C21", "note": "(stereo not drawn)", "activity change": "inactive: 5.02%"},
      {"compound": "COc1cccc(C2=CC(c3cccc(OC)c3OC)n3nnnc3N2)c1", "note": "(stereo not drawn)", "activity change": "inconclusive: -35.8% [inhibitor]"},
      {"compound": "COc1cccc(C(=O)/C=C2\\Sc3ccccc3N2C)c1", "activity change": "inconclusive: -32.5% [inhibitor]"},
      {"compound": "O=C(Nc1cccc2cccnc12)c1c(Cl)cc(Cl)cc1Cl", "activity change": "inactive: -8.28%"},
      {"compound": "CCC(=O)NC(=S)Nc1ccccc1C(=O)OC", "activity change": "inconclusive: -34.5% [inhibitor]"},
      {"compound": "O=C1/C(=C/c2ccccc2)SC(=S)N1C1CCS(=O)(=O)C1", "note": "(stereo not drawn)", "activity change": "inactive: 5.75%"},
      {"compound": "COc1cc(O)c(C(CC(=O)N2CCCC2)c2ccc(N(C)C)cc2)c(OC)c1", "note": "(stereo not drawn)", "activity change": "inconclusive: -32.4% [inhibitor]"},
      {"compound": "CC(C)Cn1c(N)c(C(=O)COC(=O)c2cc(-c3ccco3)nc3ccccc23)c(=O)n(C)c1=O", "activity change": "inconclusive: -39.8% [inhibitor]"},
      {"compound": "CN(C)c1ccc(N=Nc2ccccc2C(=O)OCC(=O)N2CCCCCC2)cc1", "activity change": "inconclusive: -67.3% [inhibitor]"},
      {"compound": "NC(=S)Cc1nc2n(n1)Cc1ccccc1-2", "activity change": "inactive: -11.3%"},
      {"compound": "CCc1ccc(NC(=O)CN(c2ccc(OC)cc2)S(=O)(=O)c2c(C)[nH]c(=O)[nH]c2=O)cc1", "activity change": "inconclusive: -31.8% [inhibitor]"},
      {"compound": "COC(=O)c1ccccc1NC(=O)c1c(O)c2c([nH]c1=O)CCCC2", "activity change": "inconclusive: -31.8% [inhibitor]"},
      {"compound": "COc1ccc(OC)c(CCNC(=O)c2ccc3c(=O)[nH]c4c(C(=O)NC(C)C)sc(=S)n4c3c2)c1", "activity change": "inactive: 1.37%"},
      {"compound": "Cc1nc2ccccn2c1-c1ccnn1S(=O)(=O)c1ccc(F)cc1", "activity change": "inactive: 0.648%"},
      {"compound": "COc1ccccc1CCN1C(=S)NC(C)(C)CC1(C)O", "note": "(stereo not drawn)", "activity change": "inactive: -1.95%"},
      {"compound": "CSc1ccccc1NC(=O)CSc1nnnn1-c1ccccc1SC", "activity change": "inactive: -6.4%"},
      {"compound": "COc1ccc(N=C2SC(CC(=O)Nc3ccccc3)C(=O)N2Cc2ccco2)cc1", "note": "(stereo not drawn)", "activity change": "inactive: 29.8%"},
      {"compound": "CCOc1ccc(C(C(=O)NC2CCCC2)N(Cc2ccccc2)C(=O)c2nsc(Cl)c2Cl)cc1", "note": "(stereo not drawn)", "activity change": "inactive: 1.13%"},
      {"compound": "COc1ccc(N(CC(=O)N/N=C/c2ccc(OC)c(OC)c2)S(=O)(=O)c2ccccc2)cc1", "activity change": "inconclusive: -35.8% [inhibitor]"},
      {"compound": "NNC(=O)c1ccc(-c2cccc([N+](=O)[O-])c2)o1", "activity change": "inconclusive: -36.1% [inhibitor]"},
      {"compound": "COc1ccccc1NC(=O)CCNS(=O)(=O)c1ccc2c(c1)CC(C)N2C(=O)C1CC1", "note": "(stereo not drawn)", "activity change": "inconclusive: -35.7% [inhibitor]"},
      {"compound": "Cc1cccc(NC(=O)c2nc[nH]c2C(=O)N[C@@H](CCCCNC(=O)OC(C)(C)C)C(=O)OC(C)(C)C)c1", "activity change": "inactive: -14.2%"},
      {"compound": "COc1ccccc1CN(C)CC(=O)Nc1cccc2ccccc12", "activity change": "inconclusive: -32.4% [inhibitor]"},
      {"compound": "COC(=O)c1ccc(Cn2cc(C(F)(F)F)cc([N+](=O)[O-])c2=O)cc1", "activity change": "active: -94.6%"},
      {"compound": "O=C(N/N=C/c1ccc(-c2cccc([N+](=O)[O-])c2)o1)c1ccccc1O", "activity change": "inconclusive: -35.3% [inhibitor]"},
      {"compound": "O=C(CNCc1ccc(Cl)cc1)Nc1ccc(C(=O)N2CCCCC2)cc1", "activity change": "inactive: 14%"},
      {"compound": "CCN1CCN(CCCNC(=O)c2ccc3c(=O)n(CCc4ccccc4)c(=O)[nH]c3c2)CC1", "activity change": "inconclusive: -30.9% [inhibitor]"},
      {"compound": "COc1ccc(-c2cc3nc4n(c(=O)c3s2)CCC4)cc1", "activity change": "inconclusive: -39.8% [inhibitor]"},
      {"compound": "Cc1ccccc1-c1cc(C(=O)NCc2cccc(Br)c2)nn1CC1CC(c2cccc([N+](=O)[O-])c2)=NO1", "note": "(stereo not drawn)", "activity change": "inconclusive: -31.6% [inhibitor]"},
      {"compound": "CCc1ccc(OC2=NS(=O)(=O)c3ccccc32)cc1", "activity change": "inconclusive: -31.3% [inhibitor]"},
      {"compound": "CNC(=O)COc1coc(CN2CCN(c3ccccc3)CC2)cc1=O", "activity change": "inconclusive: -38% [inhibitor]"},
      {"compound": "CCCCc1cc(=O)oc2cc(OCC(=O)N3C[C@H]4C[C@@H](C3)c3cccc(=O)n3C4)ccc12", "activity change": "inactive: 7.41%"},
      {"compound": "CCN1CCN(c2nc(NCCO)c3ccccc3n2)CC1", "activity change": "inconclusive: -40.4% [inhibitor]"},
      {"compound": "O=C(NC(=S)Nc1ccccc1[N+](=O)[O-])c1ccccc1", "activity change": "inconclusive: -34.2% [inhibitor]"},
      {"compound": "COCc1nnc(NC(=O)c2ccc(Cl)cc2[N+](=O)[O-])s1", "activity change": "inconclusive: -48.3% [inhibitor]"},
      {"compound": "C/C(=N\\NC(=O)COc1ccc(C(C)(C)C)cc1)c1cc2ccccc2o1", "activity change": "inconclusive: -46.7% [inhibitor]"},
      {"compound": "Cc1cc(C(=O)N/N=C/c2ccc(C)s2)n[nH]1", "activity change": "inactive: -20.8%"},
      {"compound": "CCOC(=O)C1CCCN(C(=O)c2ccc(NS(=O)(=O)c3ccc4[nH]c(=O)[nH]c4c3)cc2)C1", "note": "(stereo not drawn)", "activity change": "inconclusive: -31.7% [inhibitor]"},
      {"compound": "Cc1nn(-c2ccccc2)c(Cl)c1C(=O)N1CCN(C)CC1", "activity change": "inconclusive: -33.9% [inhibitor]"},
      {"compound": "CC=C1COC(C(=O)NCCOCCO)(C(F)(F)F)C=C1C=C(C)C", "note": "(stereo not drawn)", "activity change": "inconclusive: -45.5% [inhibitor]"},
      {"compound": "Cc1c(C(=O)NCC(c2ccco2)N2CCCC2)oc2ccc(Cl)cc12", "note": "(stereo not drawn)", "activity change": "inconclusive: -30.8% [inhibitor]"},
      {"compound": "O=[N+]([O-])c1ccc(/C=N/Nc2ccnc3cc(Cl)ccc23)o1", "activity change": "inconclusive: -63% [inhibitor]"},
      {"compound": "Cc1n[nH]c(C)c1CCOc1ccc(C(C)C)cc1", "activity change": "inconclusive: -41.8% [inhibitor]"},
      {"compound": "COc1ccccc1Nc1nnc(SCC2CCCCO2)s1", "note": "(stereo not drawn)", "activity change": "inconclusive: -36.8% [inhibitor]"},
      {"compound": "O=C(COc1ccccc1Cl)NCCNC(=O)c1ccco1", "activity change": "inconclusive: -31.7% [inhibitor]"},
      {"compound": "CCOC(=O)C1=C(C)N=c2s/c(=C/c3cccc([N+](=O)[O-])c3O)c(=O)n2C1c1ccc(OC)cc1OC", "note": "(stereo not drawn)", "activity change": "active: -80.1%"},
      {"compound": "COCCN1C(=O)c2oc3ccccc3c(=O)c2C1c1ccc(OC)c(OC)c1", "note": "(stereo not drawn)", "activity change": "inconclusive: -38% [inhibitor]"},
      {"compound": "CC(C)(C)n1[nH]c2c3c(ccc2c1=O)C(=O)c1ccccc1C3=O", "activity change": "inconclusive: -55.5% [inhibitor]"},
      {"compound": "C=CCOc1ccc(Br)cc1CNCCCN1CCOCC1", "activity change": "inactive: 9.23%"},
      {"compound": "NS(=O)(=O)c1ccc(CCNC(=O)c2ccc(CS(=O)(=O)c3ccc(Br)cc3)o2)cc1", "activity change": "inconclusive: -32.6% [inhibitor]"},
      {"compound": "O=C(NC1CSCC1OC(=O)c1ccccc1)c1ccccc1", "note": "(stereo not drawn)", "activity change": "inconclusive: -34.6% [inhibitor]"},
      {"compound": "CC1CCN(c2ccc(-c3cccc(NC(=O)c4ccco4)c3)nn2)CC1", "activity change": "inconclusive: -62.7% [inhibitor]"},
      {"compound": "CCOC(=O)C1CCN(C(=O)C(C)N(c2ccc(Oc3ccccc3)cc2)S(C)(=O)=O)CC1", "note": "(stereo not drawn)", "activity change": "inconclusive: -33.4% [inhibitor]"},
      {"compound": "COc1ccc(Cl)cc1NC(=O)CCS(=O)(=O)c1cc2c(cc1C)NC(=O)CO2", "activity change": "inconclusive: -35.2% [inhibitor]"},
      {"compound": "COc1ccc(OC)c(C(=O)N(C)C2CCCN(Cc3ccccc3F)C2)c1", "note": "(stereo not drawn)", "activity change": "inconclusive: -33.1% [inhibitor]"},
      {"compound": "COc1ccc(C(=O)CN2CCN(S(=O)(=O)c3cccc([N+](=O)[O-])c3)CC2)cc1OC", "activity change": "inconclusive: -34% [inhibitor]"},
      {"compound": "CCc1c(C)sc(NC(=O)c2ccccc2[N+](=O)[O-])c1C(N)=O", "activity change": "inconclusive: -35.4% [inhibitor]"},
      {"compound": "CN(C)c1ccc(Nc2nc(-c3cccnc3)cs2)cc1", "activity change": "inconclusive: -32.9% [inhibitor]"},
      {"compound": "COC(=O)c1ccc(CSc2cc(C)c3ccccc3n2)o1", "activity change": "inactive: 0.862%"},
      {"compound": "O=C(Nc1ccc(NC(=O)C2CCCCC2)cn1)c1ccco1", "activity change": "inconclusive: -65.2% [inhibitor]"},
      {"compound": "COC(=O)[C@]1(C)N[C@H](CN(C)S(=O)(=O)c2ccc(-c3ccccc3)cc2)[C@@H]2C(=O)N(Cc3ccccc3)C(=O)[C@@H]21", "activity change": "inconclusive: -50.5% [inhibitor]"},
      {"compound": "COc1ccc2c(c1)-c1nc(/N=C/c3c(O)ccc4ccccc34)sc1CC2", "activity change": "inactive: 9.39%"},
      {"compound": "CCOc1ncccc1C(=O)OCC(=O)N1CCN(S(=O)(=O)c2ccc(Cl)cc2)CC1", "activity change": "inconclusive: -32.4% [inhibitor]"},
      {"compound": "CCN1CCN(c2cc(C)c3cc(NC(=S)N4CCOCC4)ccc3n2)CC1", "activity change": "inconclusive: -33.6% [inhibitor]"},
      {"compound": "Cc1[nH]n(C(N)=S)c(=O)c1N=Nc1ccccc1C(F)(F)F", "activity change": "inconclusive: -42.8% [inhibitor]"},
      {"compound": "CN(C)c1ccc(C(=O)/C=C/c2ccccc2)cc1", "activity change": "inconclusive: -31% [inhibitor]"},
      {"compound": "NC(=O)c1ccccc1OCc1nc2ccccc2s1", "activity change": "inconclusive: -43.6% [inhibitor]"},
      {"compound": "CC(=O)NS(=O)(=O)c1ccc(NC(=O)C(C)NS(=O)(=O)/C=C/c2ccccc2)cc1", "note": "(stereo not drawn)", "activity change": "inconclusive: -38.4% [inhibitor]"},
      {"compound": "Cc1ccc(NC(=O)CN2C(=O)S/C(=C/c3ccc(O)c([N+](=O)[O-])c3)C2=O)cc1C", "activity change": "active: -82%"}
    ]}
  ]
}
